Experimental data as given in ChEMBL document CHEMBL1140266, “(2R)-2-methylchromane-2-carboxylic acids: discovery of selective PPARalpha agonists as hypolipidemic agents” (Bioorg Med Chem Lett, 2005).

How the values were obtained:
[1] = target: T1, Peroxisome proliferator-activated receptor gamma (Homo sapiens, UniProt P37231)
T1 sequence (P37231 whole entry): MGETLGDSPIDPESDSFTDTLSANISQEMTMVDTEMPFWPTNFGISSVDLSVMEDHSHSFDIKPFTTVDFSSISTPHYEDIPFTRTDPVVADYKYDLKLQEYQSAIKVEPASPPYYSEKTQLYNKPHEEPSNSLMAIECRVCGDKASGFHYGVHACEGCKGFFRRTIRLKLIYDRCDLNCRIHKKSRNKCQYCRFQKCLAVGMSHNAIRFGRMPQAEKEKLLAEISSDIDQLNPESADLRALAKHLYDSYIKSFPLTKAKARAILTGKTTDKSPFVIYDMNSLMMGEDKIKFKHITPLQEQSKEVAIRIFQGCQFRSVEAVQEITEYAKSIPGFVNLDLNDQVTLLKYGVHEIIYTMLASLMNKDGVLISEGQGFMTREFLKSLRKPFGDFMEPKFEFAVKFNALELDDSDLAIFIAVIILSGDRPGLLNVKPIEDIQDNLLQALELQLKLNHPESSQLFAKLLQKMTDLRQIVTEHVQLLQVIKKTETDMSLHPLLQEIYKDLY

[2] = target: T1, Peroxisome proliferator-activated receptor gamma; remark: listed apart in the source
[3] = target: T1, Peroxisome proliferator-activated receptor gamma; remark: listed apart in the source

Row | Compound | IC50 [1] [µM] | EC50 [2] [µM] | EC50 [3]
1 | CC[C@]1(C(=O)O)CCc2ccc(OCCCOc3ccc(C4CCCCC4)cc3Cl)cc2O1 | 1.4 | 0.4 | –
2 | CC[C@]1(C(=O)O)CCc2ccc(OCCCOc3ccc(C4CCC5(CC4)CC5)cc3Cl)cc2O1 | 3.7 | 0.5 | –
3 | CC(C)c1ccc(OCCCOc2ccc3c(c2)O[C@@](C)(C(=O)O)CC3)c(Cl)c1 | 5 | 3 | –
4 | C[C@]1(C(=O)O)CCc2ccc(OCCCOc3ccc(OCC4CC4)cc3Cl)cc2O1 | > 15 | – | –
5 | CC(C)Oc1ccc(OCCCOc2ccc3c(c2)O[C@@](C)(C(=O)O)CC3)c(Cl)c1 | > 15 | – | –
6 | CC[C@]1(C(=O)O)CCc2ccc(OCCCOc3ccc(C4CCC(C)(C)CC4)cc3Cl)cc2O1 | 5.7 | 1.4 | –
7 | C[C@]1(C(=O)O)CCc2ccc(OCCCOc3ccc(C4CCC5(CC4)CC5)cc3Cl)cc2O1 | 4.5 | 1 | –
8 | CC[C@]1(C(=O)O)CCc2ccc(OCCCOc3ccc(OCC(F)(F)F)cc3Cl)cc2O1 | 0.99 | 0.4 | –
9 | C[C@]1(C(=O)O)CCc2ccc(OCCCOc3ccc(C4CCCCC4)cc3Cl)cc2O1 | 5.8 | 0.7 | –
10 | CC[C@]1(C(=O)O)CCc2ccc(OCCCOc3ccc(CC(C)C)cc3Cl)cc2O1 | 1.8 | 0.6 | –
11 | CC[C@]1(C(=O)O)CCc2ccc(OCCCOc3ccc(C4CCOCC4)cc3Cl)cc2O1 | > 15 | – | 15.6 µM (not active)
12 | C[C@]1(C(=O)O)CCc2ccc(OCCCOc3ccc(F)cc3Cl)cc2O1 | > 15 | – | –
13 | C[C@@]1(C(=O)O)CCc2ccc(OCCCOc3ccc(OCC(F)(F)F)cc3Cl)cc2O1 | 2.7 | – | –
14 | CC1(C)CCC(c2ccc(OCCCOc3ccc4c(c3)O[C@@](C)(C(=O)O)CC4)c(Cl)c2)CC1 | 6.4 | 1 | –
15 | C[C@]1(C(=O)O)CCc2ccc(OCCCOc3ccc(OCC4CCC4)cc3Cl)cc2O1 | 2 | 0.7 | –
16 | C[C@]1(C(=O)O)CCc2ccc(OCCCOc3ccc(OCC(F)(F)F)cc3Cl)cc2O1 | 6 | 3 | –
17 | COc1ccc(OCCCOc2ccc3c(c2)O[C@@](C)(C(=O)O)CC3)c(Cl)c1 | > 15 | – | –
18 | C[C@]1(C(=O)O)CCc2ccc(OCCCOc3ccc(OC(F)(F)F)cc3Cl)cc2O1 | > 15 | – | –
19 | CC[C@]1(C(=O)O)CCc2ccc(OCCCOc3ccc(C(C)C)cc3Cl)cc2O1 | 2.9 | 1.2 | –
20 | CCOc1ccc(OCCCOc2ccc3c(c2)O[C@@](C)(C(=O)O)CC3)c(Cl)c1 | > 15 | – | –
21 | CC[C@]1(C(=O)O)CCc2ccc(OCCCOc3ccc(F)cc3Cl)cc2O1 | 4.3 | 3 | –
22 | CC(C)(C)c1ccc(OCCCOc2ccc3c(c2)O[C@@](C)(C(=O)O)CC3)c(Cl)c1 | > 15 | – | –
23 | CC[C@]1(C(=O)O)CCc2ccc(OCCCOc3ccc(C(C)(C)C)cc3Cl)cc2O1 | 2.8 | 1 | –
